Over roughly 33,000 sequences, “E-score (-0.5 to 0.5)” has its median near -0.054; the highest 2% begin near 0.35. This is one part of the list.
target: T1, Stb5 (UniProt P38699); assay: PBM E-score (8-mer binding enrichment) (E-score (-0.5 to 0.5)); higher = stronger / more preferred TF binding; most listed sequences are background and not binding sites; conditions: protein concentration: 200 nM; construct: GST-full length
T1 sequence: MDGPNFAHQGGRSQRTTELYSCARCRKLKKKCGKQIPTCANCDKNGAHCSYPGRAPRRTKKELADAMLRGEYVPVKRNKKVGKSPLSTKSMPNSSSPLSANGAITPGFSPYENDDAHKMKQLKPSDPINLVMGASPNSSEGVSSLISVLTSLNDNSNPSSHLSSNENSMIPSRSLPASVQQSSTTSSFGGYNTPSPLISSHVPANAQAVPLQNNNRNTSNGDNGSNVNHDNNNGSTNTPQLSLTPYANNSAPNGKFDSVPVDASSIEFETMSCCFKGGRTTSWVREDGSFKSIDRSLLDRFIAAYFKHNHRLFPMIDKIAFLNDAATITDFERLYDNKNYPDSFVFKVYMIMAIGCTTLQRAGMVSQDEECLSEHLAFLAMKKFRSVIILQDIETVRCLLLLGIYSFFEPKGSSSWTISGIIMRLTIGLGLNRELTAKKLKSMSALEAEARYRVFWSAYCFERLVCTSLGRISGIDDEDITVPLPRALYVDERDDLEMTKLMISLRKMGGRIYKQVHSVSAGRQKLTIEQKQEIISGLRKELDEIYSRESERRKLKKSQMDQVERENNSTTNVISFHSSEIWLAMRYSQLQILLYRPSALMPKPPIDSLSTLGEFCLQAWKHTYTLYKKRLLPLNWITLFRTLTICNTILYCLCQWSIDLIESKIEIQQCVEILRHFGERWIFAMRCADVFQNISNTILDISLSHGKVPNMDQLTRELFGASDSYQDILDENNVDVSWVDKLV
Description: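 Universal 'all 10-mer' protein binding microarrays (Agilent AMADID 015681) probed with GST-tagged S. cerevisiae TFs (full-length or DBD) made by in vitro transcription/translation (PURExpress), about 100-200 nM. Bound TF was detected with fluorescent anti-GST. Each ungapped 8-mer (which stands for itself and its reverse complement) is scored by the PBM enrichment score (E-score), a modified Wilcoxon-Mann-Whitney statistic from -0.5 to +0.5, computed with the Universal PBM Analysis Suite. Scale: above 0.35 generally sequence-specific binding.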

Sequence	PBM E-score
ATGCATGG	-0.159
TATATATA	0.201
AGACCTCC	-0.00725
GTAAGTTA	-0.0371
ATCTGGTA	-0.0778
CAAGCATC	-0.119
ACGTACGC	-0.121
ACAAGGAC	-0.364
CGTTATTA	0.196
CTCGTCTC	-0.254
CCTTGATC	-0.0818
CGCCCCAG	-0.0597
ACATGAAG	2e-05
CATCATTA	-0.103
CACAATGG	-0.24
GAGCATGC	-0.261
AGCATATA	0.0876
AGCGGCGG	0.401
TTATATAA	0.137
CTCTACAA	-0.18
GGGTCAGA	0.0485
AGATACAA	-0.086
CACCGAGA	0.151
CCAACTGC	0.0151
AAGCGGGA	0.266

Sequence	PBM E-score
ACAGCGGA	0.301
AACCGCAC	0.00707
GCACATGC	-0.105
GATTAGAC	-0.0346
CCGGATTA	0.241
AGCGGACC	0.359
GGTGCTAC	0.235
ATACTCAC	-0.0625
ATGAGGGG	-0.124
CGTACATC	-0.0222
GAGTAAGC	-0.205
ACACATCG	-0.211
CATAAACG	0.122
ATAACGGC	0.31
CTGTCGCA	0.00446
ACCAGAAT	-0.0325
ATTGCTTA	-0.0596
ATTTGCAC	-0.273
CAGCTTAG	-0.121
ACCCGCAT	0.112
ATTTTGTG	0.0555
GGCGTCAA	0.267
GCCCGCCA	0.284
CCACAGCG	-0.00683
CGCGGCCA	0.165

Sequence	PBM E-score
AGAACTTG	-0.183
AATGGCTG	-0.207
GTAGCTTA	-0.107
CATCCTCC	0.00174
ATACTGTG	-0.133
ATTACTCG	-0.0965
ATCATTAC	-0.113
ATAGTCGC	0.119
CAACCCTA	-0.358
CGTGGCTC	-0.258
ATGTGAGA	-0.175
ACCACTCA	-0.153
CCGCATTC	0.0927
CCTCGCCC	-0.219
AAGCCAGC	-0.303
CCGGCCTA	0.21
CTTCTATC	-0.12
GTTGATTA	0.0519
CAGCACAA	-0.123
ACGGGGCT	0.366
CTAATCAG	-0.112
TATCTACA	-0.197
CCGCCATC	0.185
GAGGTAAC	0.135
ACAAGAAC	-0.0649

Sequence	PBM E-score
ACAAGCAG	-0.155
CACTTGCG	-0.0879
ATGTGCGC	0.135
AGGCGTAG	-0.00577
CCCGACCA	0.326
CGCTCGGC	0.243
CAGTGGAG	-0.135
CGGCTTCA	0.259
GTCCGCAC	0.324
CAATTGCA	-0.121
GATGAGCA	-0.148
ACGGACGT	0.308
CACAAAGC	-0.103
AATAGAAA	-0.0354
AGTCCCAT	0.00895
TCTGTCCA	0.0453
CGGATTTC	0.223
CAGGAGTA	-0.181
AGAGTTTC	-0.164
GAACCCTA	-0.181
AAATCTCG	-0.0665
TCAGGGGA	-0.254
CCCCGCAA	0.284
CCACCTTC	-0.199
GGTTCGAA	-0.0855

Sequence	PBM E-score
CAGTGAGG	-0.233
CCTCTCAA	-0.0888
CCCTTCCA	-0.107
ACGATATC	-0.0544
GATTGAAC	0.0537
ACCCAACT	-0.263
AATTGTTA	0.0529
CAATAAAC	0.135
CAAAAACA	-0.116
AATGCTCG	-0.221
CCGTGTTC	0.137
TACTCAAA	-0.199
CCAGCCTA	-0.226
ACCGATCA	0.293
ACTTTGCA	-0.119
ATTGGTAC	0.0151
AACGAATC	-0.0815
TACATGCA	-0.019
TGCGGAAA	0.0033
AGTCGCGG	0.203
CACTAGAG	-0.0417
ACGTTACA	-0.246
TCTCGAAA	-0.206
GGTGGAAC	-0.0383
CGGGCTAG	0.135

Sequence	PBM E-score
AACAGCGG	0.366
AGCTTTGC	-0.13
AAGTCCCG	0.385
AAATTGTC	0.143
ACGAGAAA	-0.0778
AAGTTAAT	-0.067
ACATATCC	0.154
ACTGTTCC	-0.141
GAGCCTCC	-0.123
TAGATGCA	-0.176
CGGGGCTC	0.259
AGGTAAAT	-0.00248
GGTGATAA	0.415
CGAGGGGA	-0.104
CGTTAATC	0.238
ATCCCCCG	0.292
CTAAACAA	-0.252
ACCAACCT	-0.149
GCTATTAC	0.128
GGTCAGTA	-0.0306
GGATGCCA	-0.226
GGGAATAC	0.302
CCACTTGA	-0.00654
ACAGTCTA	-0.0348
TAGCACTA	-0.246

Sequence	PBM E-score
TTAATCAA	-0.0616
GTACTATA	0.0937
CCGAGACC	0.102
CAGGAAAC	-0.116
AACTTACG	-0.0554
AAGTTGAC	-0.145
ACAGCGCT	0.22
GGAGCAAC	-0.072
CATCACCC	0.105
GTGAAAAC	0.0712
AGCGAAGC	-0.00055
CAAAAGCA	-0.198
AAATCCGG	0.376
GGGAAACC	-0.071
GAACCGAA	0.0136
AACACCCT	-0.128
ACAGATGA	-0.234
AAACCAGA	-0.163
ACGGGGAA	0.252
AGCGATGC	-0.112
ATTGGTAA	-0.127
GCGTGGCC	-0.159

— the supplement of paper PMC3334620
